Measurements reported in the RNAGym collection of RNA variant scans (doi:10.7554/elife.90254).
Read counts are not given, so values of variants with three or more changes are uncertain.

B1: LINE1-mini (parent)
chain: GGCAGAGCUCAACACAGCGUGGCAAAGUGGCUGUGGCUAGACUGCC

Variants of: B1
Experiment: self-cleavage, relative activity (ratio to wild type); higher = more cleavage; in vitro, sequencing; the parent is a self-cleaving ribozyme

| Variant | self-cleavage |
| --- | --- |
| C8G A16G G19U U20A G22A G35U G36C C45A | 0.28 |
| C8G A16U C23G G33U G40C | 0 |
| C8G A16U C45U | 0.09 |
| C8G A16U G19C G44C | 0.04 |
| C8G A16U G36U | 0.02 |
| C8G A24C C37U C42G | 0.02 |
| C8G A24C U28C G33U C37A G40C | 0 |
| C8G A24U A41U | 0.31 |
| C8G A25C G27U C37G C45U | 0.01 |
| C8G A25C G44A | 0.04 |
| C8G A25U C46A | 0 |
| C8G A25U C46G | 0.1 |
| C8G A26C U28G C31A | 0.01 |
| C8G A26G C37A | 0.04 |
| C8G A26G G29U | 0.56 |
| C8G A26G G35A A41C | 0.07 |
| C8G A26G G36U | 0.21 |
| C8G A26U A41U | 0.09 |
| C8G A26U A41U G44C | 0.19 |
| C8G A26U U38A | 0.04 |
| C8G A39U C46A | 0.01 |
| C8G C10A A11C G29U C46G | 0.02 |
| C8G C10A A12U G19A A26G A41C C42A C45A | 0 |
| C8G C10A A16U | 0.01 |

| Variant | self-cleavage |
| --- | --- |
| C8G C10A C13G G33U | 0.01 |
| C8G C10A C13U C31G | 0.03 |
| C8G C10A C15A A16G G40A U43A | 0 |
| C8G C10A C15G A24G | 0.03 |
| C8G C10A C42G | 0.04 |
| C8G C10A U28C G35U | 0.02 |
| C8G C10A U32C C42G | 0.01 |
| C8G C10G A11C A16C C42U | 0.01 |
| C8G C10G A11U | 0.02 |
| C8G C10G C15A G35C | 0.02 |
| C8G C10G C15U U38A U43A C45U | 0.01 |
| C8G C10G C23A U38C G40U | 0 |
| C8G C10G G17A C31A | 0.02 |
| C8G C10G G21C | 0.01 |
| C8G C10G U20A G33A | 0 |
| C8G C10U A11G G19U | 0.02 |
| C8G C10U A11U C31U | 0.01 |
| C8G C10U A39C G40A | 0.02 |
| C8G C10U C18U U20C G21C | 0.04 |
| C8G C10U C23G A25U | 0.02 |
| C8G C10U G17C C37G | 0.14 |
| C8G C10U G22A | 0.04 |
| C8G C10U G22U G36A | 0.24 |
| C8G C10U G27A G40A | 0.02 |

| Variant | self-cleavage |
| --- | --- |
| C8G C10U G29U | 0.07 |
| C8G C13A A16U G22C A25C C37A | 0.01 |
| C8G C13A A41G | 0.1 |
| C8G C13A C23A A41U | 0.07 |
| C8G C13A C37A | 0.16 |
| C8G C13A C42G | 0.1 |
| C8G C13A G17A C23A | 0 |
| C8G C13A G17U | 0.05 |
| C8G C13A G21C C37A C42G | 0.13 |
| C8G C13A G22C G44U | 0.08 |
| C8G C13A G22U | 0.03 |
| C8G C13G A14U G21A A41U | 0.01 |
| C8G C13G A25U C37A A41U | 0.03 |
| C8G C13G A26C | 0.18 |
| C8G C13G A39C | 0.02 |
| C8G C13G G40A | 0.01 |
| C8G C13G U32G G35C C42G | 0.12 |
| C8G C13U A14G | 0.04 |
| C8G C13U A16C C23G A25G G40U | 0.03 |
| C8G C13U C15G | 0.06 |
| C8G C13U C18U G36U | 0.09 |
| C8G C13U C23G G29C U32A | 0.04 |
| C8G C13U C31A | 0.04 |
| C8G C13U C37G G44U | 0.07 |

| Variant | self-cleavage |
| --- | --- |
| C8G C13U C37G U38G C45U C46A | 0.09 |
| C8G C13U G17U | 0.04 |
| C8G C13U U32C C42A | 0.07 |
| C8G C13U U32C G44U | 0.04 |
| C8G C13U U38A | 0.02 |
| C8G C15A A25G G33C | 0.04 |
| C8G C15A A26U G27C | 0.06 |
| C8G C15A G17C C23A A24G C46U | 0.02 |
| C8G C15A U20A A26G U38C U43C | 0.01 |
| C8G C15A U20C A26U | 0.08 |
| C8G C15A U43C | 0 |
| C8G C15G A16U | 0 |
| C8G C15G G21U C31A C37U U38G | 0.07 |
| C8G C15G G44A C45U | 0.05 |
| C8G C15G U28C | 0.02 |
| C8G C15U A25G A39U | 0.12 |
| C8G C15U G17U G36C C37U | 0.04 |
| C8G C15U G22C | 0.06 |
| C8G C15U G27A | 0.12 |
| C8G C15U G33U C37G | 0.05 |
| C8G C15U G35C G40A | 0.07 |
| C8G C15U G36U C46A | 0.09 |
| C8G C18A A26C G27A G35U | 0.11 |
| C8G C18A G22A | 0.06 |

| Variant | self-cleavage |
| --- | --- |
| C8G C18A G22U A24G C45U | 0.02 |
| C8G C18A G40A C42G U43C | 0.14 |
| C8G C18G A25C G29C G36U G40U | 0.02 |
| C8G C18G C23U C37A | 0.09 |
| C8G C18G G19C A25U | 0.23 |
| C8G C18G G21U G36U | 0.03 |
| C8G C18G G22A G40U | 0.05 |
| C8G C18G G29U C45A | 0.01 |
| C8G C18G G44U | 0 |
| C8G C18U C23A C37A | 0.15 |
| C8G C18U C37A A39G | 0.03 |
| C8G C18U G19U G30U C42A U43A | 0.06 |
| C8G C18U G33A U43A | 0.05 |
| C8G C18U G35U | 0.04 |
| C8G C18U U28A G30U C45U | 0.07 |
| C8G C18U U32G C37U | 0.01 |
| C8G C23A A24U G36A | 0.03 |
| C8G C23A G40A | 0.04 |
| C8G C23A U28A U38G | 0 |
| C8G C23G A24U | 0 |
| C8G C23G G33C A39G | 0.08 |
| C8G C23G G36A C45A | 0.02 |
| C8G C23U C42U | 0.03 |
| C8G C31A G36U | 0.8 |

| Variant | self-cleavage |
| --- | --- |
| C8G C31G U38A | 0.02 |
| C8G C31U A41C | 0.04 |
| C8G C37A A39G | 0.02 |
| C8G C37G U43A C45G | 0.01 |
| C8G C37U G44A | 0.01 |
| C8G C45U C46U | 0.01 |
| C8G G17A A25U G27U | 0.01 |
| C8G G17A C31U C37U A39C | 0.02 |
| C8G G17A C45A | 0.02 |
| C8G G17A G19A G21A G29U C42A | 0.02 |
| C8G G17A G21U G22A | 0.01 |
| C8G G17A G44U | 0.14 |
| C8G G17C A25U U38C C45A | 0.3 |
| C8G G17C C42U | 0 |
| C8G G17C G19A | 0.05 |
| C8G G17C G19C G21A C42A | 0.03 |
| C8G G17C G30C C37A C42G | 0.05 |
| C8G G17C G35U | 0.11 |
| C8G G17U C18U G35A C42A | 0.07 |
| C8G G17U C46A | 0.02 |
| C8G G17U G22C A24U G35C | 0.05 |
| C8G G19A A24U U34A | 0.08 |
| C8G G19A A26U G27U U28C | 0.32 |
| C8G G19A G21U | 0.01 |

| Variant | self-cleavage |
| --- | --- |
| C8G G19A G30C C31G G36A | 0 |
| C8G G19A G30C G40U | 0.05 |
| C8G G19A U28A | 0.05 |
| C8G G19A U28A G30C C31G A41G | 0 |
| C8G G19A U34G G35A G44U | 0 |
| C8G G19A U38C | 0.07 |
| C8G G19C A25G G36U C45U | 0.09 |
| C8G G19C G27C G35U G40A | 0.01 |
| C8G G19C G35U | 0.04 |
| C8G G19C G36A G40A | 0.02 |
| C8G G19C G36U A39G | 0 |
| C8G G19C G40U | 0.05 |
| C8G G19U A25C G36A C46U | 0.06 |
| C8G G19U C45G | 0.02 |
| C8G G19U G21U G30U U38G C46A | 0.01 |
| C8G G19U G30U G44C | 0.04 |
| C8G G19U G33C | 0.01 |
| C8G G19U U28G C31U | 0.04 |
| C8G G21A A24G A26U | 0.2 |
| C8G G21A A26U U32C G40C | 0.04 |
| C8G G21A G27C | 0.19 |
| C8G G21A G36A | 0.54 |
| C8G G21C A24U G35A | 0.05 |
